# No constants are given. Whether binding was seen depends on the method and setting. Some binding calls cover weakened binding; strength is not graded here. Tags and fused reporters may be left off the sequences shown.
# The chains behind the UniProt entries cited, without tags or fusion partners.
# UniProt Q9SXZ2: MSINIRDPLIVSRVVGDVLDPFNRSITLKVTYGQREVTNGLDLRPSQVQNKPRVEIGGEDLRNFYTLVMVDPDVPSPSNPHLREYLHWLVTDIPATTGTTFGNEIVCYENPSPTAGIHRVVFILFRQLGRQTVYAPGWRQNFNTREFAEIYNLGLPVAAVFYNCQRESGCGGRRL
# T1: GRF3 (14-3-3 psi) (yeast two-hybrid fusion) (Arabidopsis) (UniProt P42644)
# T1 sequence: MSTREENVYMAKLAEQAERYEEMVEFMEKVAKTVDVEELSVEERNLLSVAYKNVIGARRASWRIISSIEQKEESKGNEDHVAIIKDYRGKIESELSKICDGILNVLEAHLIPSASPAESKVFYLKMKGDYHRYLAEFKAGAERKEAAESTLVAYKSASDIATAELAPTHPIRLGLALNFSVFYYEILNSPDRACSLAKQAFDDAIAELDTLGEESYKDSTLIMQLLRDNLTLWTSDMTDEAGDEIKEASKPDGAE
# T2: GRF4 (14-3-3 phi) (yeast two-hybrid fusion) (Arabidopsis) (UniProt P46077)
# T2 sequence: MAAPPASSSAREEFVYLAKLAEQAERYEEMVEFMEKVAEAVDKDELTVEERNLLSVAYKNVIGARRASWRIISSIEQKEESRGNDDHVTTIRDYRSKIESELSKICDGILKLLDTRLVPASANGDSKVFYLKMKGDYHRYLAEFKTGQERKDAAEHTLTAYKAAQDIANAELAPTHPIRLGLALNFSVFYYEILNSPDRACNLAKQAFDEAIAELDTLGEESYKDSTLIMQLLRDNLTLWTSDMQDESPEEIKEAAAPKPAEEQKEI
# Legend:
# Assay in all cases: two-hybrid; yeast two-hybrid, GAL4 AD and BD fusions; growth on selective (SCD -Leu, -Trp, -His) against non-selective (SCD -Leu, -Trp) medium
# [1] = target: FLOWERING LOCUS T (FT) (yeast two-hybrid fusion) (Arabidopsis), Q9SXZ2; conditions: remark: other sources report otherwise
# [2] = target: FLOWERING LOCUS T (FT) (yeast two-hybrid fusion) (Arabidopsis) (UniProt Q9SXZ2)
# [3] = target: T1, GRF3 (14-3-3 psi) (yeast two-hybrid fusion) (Arabidopsis)
# [4] = target: T2, GRF4 (14-3-3 phi) (yeast two-hybrid fusion) (Arabidopsis)
binding [1],binding [2],binding [3],binding [4],Binder
binds,,,,"FD, wild type (yeast two-hybrid fusion), Q84JK2 1-285 (protein) MLSSAKHQRNHRLSATNKNQTLTKVSSISSSSPSSSSSSSSTSSSSPLPSQDSQAQKRSLVTMEEVWNDINLASIHHLNRHSPHPQHNHEPRFRGQNHHNQNPNSIFQDFLKGSLNQEPAPTSQTTGSAPNGDSTTVTVLYSSPFPPPATVLSLNSGAGFEFLDNQDPLVTSNSNLHTHHHLSNAHAFNTSFEALVPSSSFGKKRGQDSNEGSGNRRHKRMIKNRESAARSRARKQAYTNELELEVAHLQAENARLKRQQDQLKMAAAIQQPKKNTLQRSSTAPF"
no binding,,,,"non-phosphorylatable T282A mFD (yeast two-hybrid fusion), Q84JK2 1-285 (protein) MLSSAKHQRNHRLSATNKNQTLTKVSSISSSSPSSSSSSSSTSSSSPLPSQDSQAQKRSLVTMEEVWNDINLASIHHLNRHSPHPQHNHEPRFRGQNHHNQNPNSIFQDFLKGSLNQEPAPTSQTTGSAPNGDSTTVTVLYSSPFPPPATVLSLNSGAGFEFLDNQDPLVTSNSNLHTHHHLSNAHAFNTSFEALVPSSSFGKKRGQDSNEGSGNRRHKRMIKNRESAARSRARKQAYTNELELEVAHLQAENARLKRQQDQLKMAAAIQQPKKNTLQRSSAAPF"
,binds,binds,binds,"LQTE mFD (L277Q T282E) (yeast two-hybrid fusion) (protein, UniProt Q84JK2 1-285) MLSSAKHQRNHRLSATNKNQTLTKVSSISSSSPSSSSSSSSTSSSSPLPSQDSQAQKRSLVTMEEVWNDINLASIHHLNRHSPHPQHNHEPRFRGQNHHNQNPNSIFQDFLKGSLNQEPAPTSQTTGSAPNGDSTTVTVLYSSPFPPPATVLSLNSGAGFEFLDNQDPLVTSNSNLHTHHHLSNAHAFNTSFEALVPSSSFGKKRGQDSNEGSGNRRHKRMIKNRESAARSRARKQAYTNELELEVAHLQAENARLKRQQDQLKMAAAIQQPKKNTQQRSSEAPF"
,binds,,,"phospho-mimic T282E mFD (yeast two-hybrid fusion) (protein, UniProt Q84JK2 1-285) MLSSAKHQRNHRLSATNKNQTLTKVSSISSSSPSSSSSSSSTSSSSPLPSQDSQAQKRSLVTMEEVWNDINLASIHHLNRHSPHPQHNHEPRFRGQNHHNQNPNSIFQDFLKGSLNQEPAPTSQTTGSAPNGDSTTVTVLYSSPFPPPATVLSLNSGAGFEFLDNQDPLVTSNSNLHTHHHLSNAHAFNTSFEALVPSSSFGKKRGQDSNEGSGNRRHKRMIKNRESAARSRARKQAYTNELELEVAHLQAENARLKRQQDQLKMAAAIQQPKKNTLQRSSEAPF"

# Second part, the binder before the results:
Binder,binding [1],binding [2],binding [3],binding [4]
"L277Q mFD (yeast two-hybrid fusion) (protein, UniProt Q84JK2 1-285) MLSSAKHQRNHRLSATNKNQTLTKVSSISSSSPSSSSSSSSTSSSSPLPSQDSQAQKRSLVTMEEVWNDINLASIHHLNRHSPHPQHNHEPRFRGQNHHNQNPNSIFQDFLKGSLNQEPAPTSQTTGSAPNGDSTTVTVLYSSPFPPPATVLSLNSGAGFEFLDNQDPLVTSNSNLHTHHHLSNAHAFNTSFEALVPSSSFGKKRGQDSNEGSGNRRHKRMIKNRESAARSRARKQAYTNELELEVAHLQAENARLKRQQDQLKMAAAIQQPKKNTQQRSSTAPF",,no binding,no binding,no binding
"FD, wild type (yeast two-hybrid fusion) (protein, UniProt Q84JK2 1-285) MLSSAKHQRNHRLSATNKNQTLTKVSSISSSSPSSSSSSSSTSSSSPLPSQDSQAQKRSLVTMEEVWNDINLASIHHLNRHSPHPQHNHEPRFRGQNHHNQNPNSIFQDFLKGSLNQEPAPTSQTTGSAPNGDSTTVTVLYSSPFPPPATVLSLNSGAGFEFLDNQDPLVTSNSNLHTHHHLSNAHAFNTSFEALVPSSSFGKKRGQDSNEGSGNRRHKRMIKNRESAARSRARKQAYTNELELEVAHLQAENARLKRQQDQLKMAAAIQQPKKNTLQRSSTAPF",,,binds,binds
